# Whole data set: some 110,000 compounds, median “z-score” near -0.1, cut for the highest 2% near 2. The list shows a part of the results. Calls of active or inactive are those of the source.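 How the source made its calls: active means z-score in the third read window above 3 or below -3; inactive means the rest.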
# Target: Metabotropic glutamate receptor 8 (Rattus norvegicus) (UniProt P70579)
# Test: rat mGluR8 modulators via GIRK flux, primary screen, cell-based, thallium flux, HTS (AID 488969)
# Conditions: HEK293 rat mGluR8, GIRK (G protein-gated inwardly rectifying potassium channel) thallium flux, FluoZin2; at 10 µM; stronger effect = higher value; submaximal glutamate (EC20) added with thallium
# UniProt P70579, sequence (P70579 whole entry, looked up): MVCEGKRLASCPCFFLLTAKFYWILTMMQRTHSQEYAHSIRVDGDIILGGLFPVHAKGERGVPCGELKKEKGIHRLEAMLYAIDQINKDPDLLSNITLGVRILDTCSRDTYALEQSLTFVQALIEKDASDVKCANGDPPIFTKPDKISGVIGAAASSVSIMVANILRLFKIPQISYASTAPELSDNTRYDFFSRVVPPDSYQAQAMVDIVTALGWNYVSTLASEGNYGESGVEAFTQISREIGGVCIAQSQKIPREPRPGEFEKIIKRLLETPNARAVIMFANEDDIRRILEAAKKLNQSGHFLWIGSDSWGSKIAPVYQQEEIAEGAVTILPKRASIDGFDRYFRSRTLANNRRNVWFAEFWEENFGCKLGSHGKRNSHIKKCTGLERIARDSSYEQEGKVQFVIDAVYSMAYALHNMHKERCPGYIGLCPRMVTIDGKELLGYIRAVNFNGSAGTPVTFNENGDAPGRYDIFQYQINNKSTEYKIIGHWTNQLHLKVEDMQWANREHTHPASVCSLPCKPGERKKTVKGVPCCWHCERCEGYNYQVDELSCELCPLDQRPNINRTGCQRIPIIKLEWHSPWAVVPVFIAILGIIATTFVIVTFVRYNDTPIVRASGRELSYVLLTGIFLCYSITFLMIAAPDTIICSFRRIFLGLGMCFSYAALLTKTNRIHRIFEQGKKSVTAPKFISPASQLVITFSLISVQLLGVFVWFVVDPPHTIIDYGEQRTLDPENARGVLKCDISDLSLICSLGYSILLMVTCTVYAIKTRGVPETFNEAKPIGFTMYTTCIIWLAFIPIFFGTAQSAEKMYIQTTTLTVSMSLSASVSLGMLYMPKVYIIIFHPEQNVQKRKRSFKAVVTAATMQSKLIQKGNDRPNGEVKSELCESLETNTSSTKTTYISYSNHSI
row,SMILES,z-score
1,Cc1cc2cc(CNC(=O)c3cccs3)ccc2[nH]1,-0.241
2,CCNc1nc(OC)nc(N2CCC(Cc3ccccc3)CC2)n1,-0.256
3,Cc1nc(-c2ccc(NC(=O)c3cccs3)cc2)cs1,-0.0433
4,COc1ccc(C2CC(c3ccc(Cl)cc3)Nc3nc(NC(=O)c4ccco4)nn32)cc1 (centres undefined),-0.169
5,Cc1c(CC(C)C)nc(N)c(C#N)c1-c1ccccc1,-0.104
6,COCCCNC(=O)C1CCN(S(=O)(=O)c2c(C)noc2/C=C\c2ccc(OC)cc2)CC1,-0.801
7,O=C(COc1ncnc2ccccc12)NC1CCS(=O)(=O)C1 (centres undefined),0.546
8,COc1cc(C(=O)Nc2ccc3c(c2)C(=O)N(CCC(=O)O)C3=O)cc(OC)c1OC,0.118
9,Cc1cccc(NC(=O)C2(c3cccs3)CCOCC2)c1,-0.122
10,COc1ccc(-c2nnc(SCC(=O)c3cc(C)n(Cc4cccs4)c3C)o2)cc1,-0.177
11,Cc1ccc2c(CC(=O)NNC(=O)c3ccccc3)coc2c1,-0.29
12,Cc1ccc(OCc2ccc(C(=O)Nc3c(C)nn(Cc4c(F)c(F)c(F)c(F)c4F)c3C)o2)c([N+](=O)[O-])c1,-0.664
13,CC1CCN(c2nc(NCc3ccco3)nc(N)c2[N+](=O)[O-])CC1,-0.336
14,CC(C)=CC(=O)Nc1nnc(-c2ccc(F)cc2)s1,-0.0616
15,COc1cc(NC(=O)c2cccs2)c(C(=O)OCC(=O)NC(C)c2ccccc2)cc1OC (centres undefined),-0.919
16,COc1cc(NC(=O)NS(=O)(=O)c2ccc(C)cc2)cc(OC)c1,-0.0788
17,O=C(Cc1ncc(C(F)(F)F)cc1Cl)Nc1ccc(F)cc1,-0.0056
18,Cc1cccc(N(CC(=O)NC2CCCCC2)C(=O)c2c(C)noc2C)c1,-0.593
19,Cc1ccccc1Nc1nnc(C)c(=O)n1N,0.0745
20,CCCc1c(O)nc(SCC(=O)NCCc2ccc(OC)c(OC)c2)[nH]c1=O,-0.0747
21,O=C(c1ccccc1)[C@H]1CC=CC[C@H]1C(=O)O,-0.127
22,Brc1ccc(-c2noc(COc3ccc4ccccc4c3)n2)o1,-0.126
23,Cc1cc(NCCO)c2cc(O)ccc2n1,0.231

row,SMILES,z-score
1,CCOC(=O)[C@@H]1CCNC[C@@H]1c1ccccc1,0.253
2,Cn1c(-c2ccccc2Br)n[nH]c1=S,-0.0173
3,COc1cc(CC(=O)OCC(=O)Nc2cccc([N+](=O)[O-])c2)cc(OC)c1OC,-0.514
4,C/C(=N\NC(=O)C1CC1)c1ccc(Cl)cc1,-0.265
5,N#C/C(=C\N1CCOCC1)c1ccccc1,-0.213
6,CC(NC(=O)COC(=O)Cc1ccsc1)C1CC2CCC1C2 (centres undefined),-0.168
7,CCOc1ccc(OCCCC(=O)NC2=NCCS2)cc1,0.00357
8,O=C(CC(c1ccccc1)c1cc(Br)ccc1O)NCc1ccco1 (centres undefined),-1.44
9,CCOC(=O)c1cc(C(=O)Nc2ccccc2F)nn1C,-0.326
10,CSC1=NCCN1C(=O)Cc1cccs1,0.0271
11,COc1ccc(NC(=O)c2cccs2)cc1NC(=O)c1ccco1,-0.191
12,Cc1cccc(C)c1C(OCCN(C)C)C1CCCCC1 (centres undefined),1.12
13,Cc1cccc(C)c1NC(=O)c1c(-c2ccccc2)noc1C,-0.0725
14,C/C(=C\C(=O)c1ccc(Cl)cc1)Nc1ccc(N2CCOCC2)cc1,-0.751
15,CCc1ccc(/C=N/NC(=O)c2cc(-c3ccccc3OC)nc3ccccc23)s1,0.385
16,Cc1ccc(CN2CCc3c(OCc4ccc(F)cc4)cccc3C2=O)cc1,0.0736
17,C(#CCN1CCC(Cc2ccccc2)CC1)COCCOCc1ccccc1,-0.206
18,Cn1ncc2c(N3CCN(c4ccccc4F)CC3)ncnc21,-0.248
19,COc1ccc(-c2nc3c(c4nnc(SC(C)C(=O)Nc5ccc(C)cc5)n24)COC(C)(C)C3)cc1 (centres undefined),-0.373
20,COc1ccc(OCc2nnc(SCC(=O)NNC(=O)c3ccc(C)cc3)n2C)cc1,-0.0492
21,Cc1ccc2ncc(NC(=O)c3ccc(F)cc3)c(=O)n2c1,-0.426
22,O=S(=O)(NCc1cccnc1)c1ccc(Cl)c(Cl)c1,0.0681
23,CCN=C1S/C(=C\c2cc(Br)ccc2OCC(=O)OCC)C(=O)N1CC,-0.0384

row,SMILES,z-score
1,O=C(Nc1c(Cl)cc(Cl)cc1-c1nc2ccccc2s1)c1ccc(Br)o1,-0.0849
2,CCCCOC(=O)Cn1c2ccc(OC)cc2c2nc3ccccc3nc21,-0.283
3,Cc1cc(C)nc(N2CCCC(C(=O)NCCC3=CCCCC3)C2)n1 (centres undefined),0.000737
4,CCCc1ccc(OCc2ccc(C(=O)O)o2)c(OC)c1,-1.28
5,COc1ccc(S(=O)(=O)NNC(=O)c2csc(-n3nc(C)cc3C(F)(F)F)n2)cc1,0.265
6,CCn1c(Cc2ccccc2)nnc1SCC(=O)Nc1ccc(S(N)(=O)=O)cc1,-0.143
7,CC1CCCCC1NC(=O)COC(=O)c1ccccc1NC(=O)c1ccco1 (centres undefined),0.824
8,CCOC(=O)N1CCN(C(=O)CCC(=O)N2CCOc3ccc(C)cc32)CC1,1.07
9,CCn1c(SCC(=O)N2CCOCC2)nnc1-c1cccs1,0.783
10,O=C(NC1CCCCC1)C(c1ccccc1)N(Cc1ccco1)C(=O)Cn1cnc2ccccc21 (centres undefined),-1.29
11,CC(=O)Nc1sc2c(c1CN1CCN(c3ccc(F)cc3)CC1)CCCC2,-0.0547
12,Cc1ccc2c(c1)[nH]c1c(=O)n(CCN3CCCCC3)cnc12,0.776
13,O=C(CSc1ccc2nnc(-c3ccc(F)cc3)n2n1)NCc1ccco1,-0.204
14,CC(C)NC(=S)NCc1cccnc1,-0.16
15,O=C1C=CC(=O)N1Nc1ccc(Br)cc1,-0.363
16,CCN(CC)C(=O)CN(c1cc2c(cc1OC)oc1ccccc12)S(=O)(=O)c1ccc(C)cc1,-0.512
17,C(=N\Nc1nc2ccccc2s1)/c1ccc2c(c1)OCO2,-0.0472
18,CC(=Nc1ccc(C)c(C)c1)C1=C(O)CCC1=O,-0.6
19,CCOc1cccc(C(=O)Nc2cccnc2)c1,-0.219
20,CCCn1c(SCC(=O)Nc2cc(Cl)ccc2OC)n[nH]c1=O,-2.02
21,Cc1ccc(C(=O)NC(=S)Nc2cc(-c3nc4ccccc4s3)ccc2C)cc1,0.216
22,O=C(CN1CCOCC1)Nc1ncc(Cc2ccccc2Cl)s1,-0.314
23,CC(=O)CCc1ccc(OC(=O)c2cccnc2)cc1,0.137

row,SMILES,z-score
1,CS(=O)(=O)N(CCc1ccccc1)CC(N)=O,-0.42
2,COc1cc(OC)c(NS(=O)(=O)c2coc(C(N)=O)c2)cc1Cl,0.426
3,CC(=O)N(C)c1nnc(-c2cnccn2)s1,-0.0211
4,CCC(=O)C1=C(N2CCCC2)CC(C)(C)CC1=O,0.328
5,Cc1cc(C(=O)Nc2cccc3ncccc23)no1,0.0165
6,Cc1ccc(CS(=O)(=O)CCC(=O)NCCN2CCCCC2C)cc1 (centres undefined),1.29
7,COc1ccc(N(Cc2ccccc2)C(=O)CSc2nnc(Cn3nnc4ccccc43)o2)cc1,-1.04
8,Cc1nnsc1NC(=O)OCc1ccccc1Cl,-0.195
9,COC(=O)c1ccccc1NC(=O)c1cccc(COc2ccccc2Cl)c1,-0.1
10,O=C(C1CCCCC1)N1CCN=C1SCc1cccnc1,-0.208
11,O=C1NC(c2ccc3c(c2)OCO3)Oc2ccccc21 (centres undefined),-0.859
12,CC(C)c1ccc(C(=O)NC(=S)NCc2cccnc2)cc1,-0.0902
13,C/C(CC(C)(C)C1CCCCC1)=N\NC(N)=S,1.92
14,CCC(O)c1cc2c(cc1NC(=O)c1ccc(C)cc1)OCCO2 (centres undefined),-0.0738
15,COC(=O)c1ccc(N2CN=C(c3ccc(C)cc3)NC2=S)cc1,-0.484
16,COc1ccc(-n2nnnc2SC(C)C(=O)NCC(=O)Nc2ccc(F)c(F)c2F)cc1 (centres undefined),-0.346
17,Cn1c(SCc2ccccc2)nnc1-c1c[nH]c2ccccc12,0.0787
18,CCSc1cc(C)nc2c(-c3ccc(Cl)cc3)c(C)nn12,0.367
19,COc1ccc(C(=O)Cn2nnc(-c3ccccc3NC(=O)C3CCCCC3)n2)cc1,-1.02
20,O=C(NC(=S)Nc1ccc2c(c1)OCO2)c1ccccc1,active: 3.25
21,O=C1C=C(NC2CC2)C2(CCCCC2)O1,-0.972
22,Cc1ccc(-c2noc(C3CCCN(S(=O)(=O)c4ccc(S(=O)(=O)N(C)C)cc4)C3)n2)o1 (centres undefined),-0.0937
23,CCN(CC)c1ccc(-c2c(C#N)c(N)nc(OC)c2C#N)cc1,0.242

row,SMILES,z-score
1,CCn1c(SC)nnc1-c1c[nH]c2ccccc12,0.0853
2,CCCCP(=O)(CCCC)CCP(=O)(c1ccccc1)c1ccccc1,-0.667
3,COC(=O)Cn1c2ccc(OC)cc2c2nc3ccccc3nc21,0.424
4,CC(=O)c1ccc(-n2c(CCC(=O)O)ccc2-c2cccs2)cc1,-0.00367
5,O=S(=O)(c1ccc(Cl)s1)N1CCN(C/C=C/c2ccccc2)CC1,-0.0433
6,CCC(C)C(NC(=O)[C@@H](NC(=O)c1ccccc1F)C(C)C)C(=O)OC (some centres undefined),-0.348
7,CCn1cc(C(=O)NCc2cccc(F)c2)c(=O)c2cc(F)c(N3CCN(C(=O)c4ccco4)CC3)cc21,-0.898
8,COc1ccc2c(c1)CC(C1(O)C(=O)Nc3ccccc31)C2=O (centres undefined),0.363
9,Cc1ccc2nsnc2c1NC(=O)c1cccc([N+](=O)[O-])c1,-0.21
10,CCC(=O)Nc1nc(N)n(-c2ccccc2)n1,0.054
11,CCOC(=O)c1cnn(-c2nc3c(C)cccc3s2)c1C(F)(F)F,-0.158
12,CSCC[C@H](NC(=O)OC(C)(C)C)C(=O)N1CCC(C(=O)N[C@H](C(=O)O)C(C)C)CC1,-0.119
13,COc1cccc(OCCOc2c(OC)cccc2OC)c1,-0.378
14,CC1CCCC(NC(=O)COC(=O)c2cc(S(=O)(=O)N3CCCCC3)ccc2N2CCOCC2)C1C (centres undefined),-0.428
15,CCCOc1ccc(C(=O)NCC(c2ccco2)N(C)C)cc1 (centres undefined),0.052
16,CCN(c1ccccc1)S(=O)(=O)c1cc(C(=O)Oc2ccc3c(C)cc(=O)oc3c2)ccc1C,-0.781
17,CSc1nc2ccccc2cc1/C=C(\C#N)c1ccc(Cl)cc1Cl,0.0292
18,O=C(CCn1c(=O)c2ccccc2n(CC(=O)NCCC2=CCCCC2)c1=O)NCc1ccco1,-0.381
19,Cc1nn(C(=O)c2cccnc2)c(C)c1C,0.951
20,O=C(Nc1ccc(F)cc1)c1cc(S(=O)(=O)Nc2ccc(F)cc2)cs1,-0.0782
21,Cn1c(=O)c2c(nc(NCCCO)n2Cc2cccc(Br)c2)n(C)c1=O,-0.414
22,COc1cc(C(c2c(C)[nH][nH]c2=O)c2c(C)[nH][nH]c2=O)ccc1OC(=O)c1cccc([N+](=O)[O-])c1,-0.286
